# Source: PMC4336329 (PLoS ONE, 2015)
# Hit rate of the full screen: of about 310,000 compounds, about 14,000 (4.5%) showed an effect of 50% or more. Effects have a minus sign here. The list shows a part of the results.
# Target: human ether-à-go-go-related gene (hERG) potassium channel (human, UniProt Q12809)
# Assay: primary screen, population patch clamp on CHO cells stably expressing hERG
# 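Note: peak tail current of the secondary pulse compared with the same well before compound.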
# human ether-à-go-go-related gene (hERG) potassium channel, sequence (Q12809 whole entry, looked up): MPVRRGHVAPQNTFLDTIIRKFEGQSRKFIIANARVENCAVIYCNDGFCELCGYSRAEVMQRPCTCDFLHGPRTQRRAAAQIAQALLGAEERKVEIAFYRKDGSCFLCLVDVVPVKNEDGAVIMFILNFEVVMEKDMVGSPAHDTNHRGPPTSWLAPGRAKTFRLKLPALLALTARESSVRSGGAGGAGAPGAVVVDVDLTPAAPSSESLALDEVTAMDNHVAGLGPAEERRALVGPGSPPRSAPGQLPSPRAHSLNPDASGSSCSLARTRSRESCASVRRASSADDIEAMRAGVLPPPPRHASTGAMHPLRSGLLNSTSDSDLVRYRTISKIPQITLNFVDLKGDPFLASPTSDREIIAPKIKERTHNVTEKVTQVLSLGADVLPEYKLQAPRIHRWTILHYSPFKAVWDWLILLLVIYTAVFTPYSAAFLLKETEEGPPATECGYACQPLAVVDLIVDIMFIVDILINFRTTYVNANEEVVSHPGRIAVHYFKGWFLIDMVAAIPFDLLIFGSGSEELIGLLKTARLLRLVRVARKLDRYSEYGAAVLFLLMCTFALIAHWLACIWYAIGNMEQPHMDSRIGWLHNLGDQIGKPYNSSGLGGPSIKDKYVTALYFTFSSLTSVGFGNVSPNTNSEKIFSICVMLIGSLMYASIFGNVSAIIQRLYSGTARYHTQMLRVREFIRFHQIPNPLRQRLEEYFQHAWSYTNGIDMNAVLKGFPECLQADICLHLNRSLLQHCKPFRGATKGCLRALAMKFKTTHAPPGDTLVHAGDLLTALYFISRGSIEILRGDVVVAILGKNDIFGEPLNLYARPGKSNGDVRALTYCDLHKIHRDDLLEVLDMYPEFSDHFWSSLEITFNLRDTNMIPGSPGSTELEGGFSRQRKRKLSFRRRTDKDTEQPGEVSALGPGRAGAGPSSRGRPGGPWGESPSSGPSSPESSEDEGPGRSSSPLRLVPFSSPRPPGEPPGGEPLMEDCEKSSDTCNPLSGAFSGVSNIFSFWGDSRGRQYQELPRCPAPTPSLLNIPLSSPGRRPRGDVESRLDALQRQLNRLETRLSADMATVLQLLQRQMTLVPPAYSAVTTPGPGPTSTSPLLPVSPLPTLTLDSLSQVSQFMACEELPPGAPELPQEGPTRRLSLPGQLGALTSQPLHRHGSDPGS
row,Compound,"hERG current change (%, negative = inhibition) at 10uM"
1,O=c1[nH]c2ccc(S(=O)(=O)NCCO)cc2[nH]1,15.1%
2,COC(=O)C(C)Oc1ccc(-c2nccc(-c3ccccn3)n2)cc1 (centres unmarked),-0.312%
3,Oc1ccc(Nc2ccnc3cc(Cl)ccc23)cc1,-2.29%
4,CCOc1cccc(-c2cc(-c3n[nH]c(=S)n3CC)c3ccccc3n2)c1,13.1%
5,CCOc1ccc(CN(C)Cc2cc(=O)oc3cc(C)c(Cl)cc23)cc1,7.63%
6,CCCCCNC(=O)CCn1c(=O)oc2ccccc21,7.26%
7,CCc1cc(=O)oc2cc(OC3CCCCC3=O)ccc12 (centres unmarked),23.2%
8,Cc1c(OCC(=O)NC2CCN(Cc3ccccc3)CC2)ccc2c3c(c(=O)oc12)CCC3,-47.7%
9,CNc1nc2ccccc2n1/N=C/c1cccc(OC)c1OC,-10.3%
10,COc1ccccc1C(=O)NC(=O)COC(=O)CNC(=O)c1ccc(Cl)c([N+](=O)[O-])c1,-35.9%
11,O=C(CCC1CCCCC1)Nc1cccnc1,11.7%
12,O=C(O)c1ccc(S(=O)(=O)N2CCC3(CC2)CC(=O)c2ccccc2O3)cc1,11.5%
13,COc1ccc(NC(=O)NC2(C(=O)N3CCCC3)CCCCC2)cc1,22%
14,Cc1ccc(NC(=O)Nc2cccs2)cc1,-2.58%
15,Cn1cc(S(=O)(=O)NCCc2ccccc2)c(=O)n(C)c1=O,-13.8%
16,CCOC(=O)CSc1nnc(-c2ccc(OC)cc2OC)o1,-15.5%
17,CCOC(=O)N1CCN(C(=O)Cn2ncc3c2-c2ccccc2OC3)CC1,-3.57%
18,CS(=O)(=O)N1CCC(Oc2ccccc2C(=O)N2CCCCC2CO)CC1 (centres unmarked),13%
19,CCSc1cc(C2C(C#N)=C(N)Oc3n[nH]c(C)c32)c(C)o1 (centres unmarked),6.09%
20,CCN1CCN(c2ccc(NC(=O)c3ccco3)cc2Cl)CC1,-4.06%
21,CSCc1cc(N(C)c2ccccc2)nc(-c2ccccn2)n1,-7.8%
22,CSc1nc2ccc(NC(=O)C3=NN(c4ccccc4)C(=O)CC3)cc2s1,-15.5%
23,CC(=O)c1c(C)[nH]c(C(=O)OCc2cccc(Cl)c2)c1C,2.54%

row,Compound,"hERG current change (%, negative = inhibition) at 10uM"
1,COCCN1CCN(C(=O)c2cc(COc3cc(C)ccc3C)on2)CC1,1.06%
2,Cc1ccc(S(=O)(=O)NCCC(=O)OCC(=O)Nc2cccc(S(=O)(=O)NC3=NCCCCC3)c2)cc1,3.43%
3,O=C(NNC(=O)c1csc(-c2cnccc2C(F)(F)F)n1)c1ccc(C(F)(F)F)cc1,-6.75%
4,COc1cccc(N2C(=O)Nc3ccc(Br)cc3C2(O)C(=O)NCCCN(C)C)c1 (centres unmarked),19.3%
5,O=C(NCCc1ccc(F)cc1)c1ccc2nccnc2c1,-23.4%
6,O=C(CN1C(=O)c2ccc([N+](=O)[O-])cc2C1=O)NCCC1=CCCCC1,3.82%
7,O=C(CN1C(=O)C2C3C=CC(C3)C2C1=O)Nc1nc2ccccc2[nH]1 (centres unmarked),1.59%
8,CCN1CCN(CC(O)COCC2COc3ccccc3O2)CC1.Cl (centres unmarked),-4.69%
9,C#CCOCCOCCOCCNc1nc(N2CCN(C(=O)Cn3cc(CCC[NH+]=C(N)N)nn3)CC2)nc(N2CCN(C(=O)[C@H]([C@@H](C)CC)n3cc(CCC(=O)O)nn3)CC2)n1.[Cl-],5.56%
10,COc1cc(/C(C)=N/NC(=O)Cc2c(C)[nH][nH]c2=O)ccc1O,4.62%
11,CCOC(=O)n1c(=O)n(C)c2ccc(Cl)cc21,11.1%
12,COc1ccc(CCNc2ncnc3c2c(C)c(C)n3CCO)cc1OC,7.98%
13,O=C(CCCNS(=O)(=O)c1ccccc1)NCc1ccco1,-11.7%
14,O=C(Nc1ccccn1)c1sc2cccc(F)c2c1Cl,16.4%
15,CC(=O)Nc1ccccc1NC(=O)C/C(C)=N/NC(=O)C(=O)N1CCCCC1,-13.3%
16,Cc1ccc(-c2cc3nc(C)cc(C)n3n2)cc1,14.8%
17,COc1ccc(C(=O)NC2(C(F)(F)F)C(=O)Nc3c2c(=O)[nH]c(=O)n3CCc2ccc(OC)c(OC)c2)cc1 (centres unmarked),-1.07%
18,Cc1[nH]n(-c2ccccc2)c(=O)c1N=Nc1cccc(Cl)c1,19.5%
19,CCCNC(=O)Nc1cccc(NC(C)=O)c1,16.8%
20,O=C(COC(=O)c1ccccc1-c1nc2ccccc2s1)Nc1ccccc1C(F)(F)F,2.21%
21,CC(OC(=O)c1cccnc1)C(=O)NCc1ccc2c(c1)OCO2 (centres unmarked),-5.26%
22,O=C(CN1CCN(C(=O)c2cccc(S(=O)(=O)N3CCCC3)c2)CC1)Nc1ccc(F)cc1,-61.7%
23,Cc1cc(C)cc(-n2ncc3c2CCCC3NC(=O)c2cc(C)oc2C)c1 (centres unmarked),4%

row,Compound,"hERG current change (%, negative = inhibition) at 10uM"
1,CCN(CC)C(=O)CSc1nc(C)cc(C)c1C#N,22.9%
2,Oc1ccc(Cl)cc1C=NCCc1ccccc1,3.36%
3,CCc1cc2c(SCC(=O)N3CCCC3=O)ncnc2s1,-30.3%
4,O=C(O)C(=O)O.O=[N+]([O-])c1ccccc1OCCNCc1ccccc1,-25.1%
5,COc1ccccc1-c1nc2s/c(=C\c3cccs3)c(=O)n2n1,-0.129%
6,CC(C)(C)c1nnc(NC(=O)C2c3ccccc3Oc3ccccc32)s1,10.7%
7,Cc1cc(NC(=O)CSc2nncn2-c2ccccc2)no1,36.1%
8,Cc1ccc(C(=O)OCC(=O)NCc2cccs2)cc1,5.47%
9,O=C(NCc1cccc(C(F)(F)F)c1)c1cc(-c2ccccc2)nn1CC1CC(c2cccnc2)=NO1 (centres unmarked),-52.4%
10,CCOC(=O)C1CCN(C(=O)COc2ccc(Cl)cc2Cl)CC1,-40.7%
11,O=C(CSc1nnc(-c2ccncc2)o1)Nc1ccccc1C(F)(F)F,-0.412%
12,Cc1ccc(CN2C(=O)CCC2C(=O)N2CCN(c3ccccc3)CC2)cc1 (centres unmarked),-14.2%
13,NS(=O)(=O)c1ccc(NC(=S)N2CCN(c3ccccc3Cl)CC2)cc1,18.8%
14,CC(=O)NC12CC3CC(C1)CC(C(=O)N1CCN(S(=O)(=O)c4cccs4)CC1)(C3)C2,-12.4%
15,Nc1ncc(-c2ccc([N+](=O)[O-])cc2)cn1,-4.71%
16,O=C(NCc1n[nH]c(=S)n1-c1ccc(Br)cc1)c1cccs1,19.7%
17,C=CCn1c(SCc2ccccc2)nc(O)cc1=O,-14.6%
18,c1ccc(-c2oc3ncnc(NCCCn4ccnc4)c3c2-c2ccccc2)cc1,-69.9%
19,CN(c1ccccc1)S(=O)(=O)c1cccc(C(=O)NNC(=O)c2ccncc2)c1,-43%
20,CCCn1nnnc1SCC(=O)c1ccc(NC(C)=O)cc1,10.3%
21,CCN(CC)c1ccc(/C=N/Nc2nc3ccccc3[nH]2)c(O)c1,3.28%
22,CCSc1nnc(NC(=O)Cc2ccc(OC)c(OC)c2)s1,-4.78%
23,O=S(=O)(/N=C/c1c(O)ccc2ccccc12)c1ccccc1,12.6%

row,Compound,"hERG current change (%, negative = inhibition) at 10uM"
1,O=C(Nc1cccc(C(F)(F)F)c1)c1cccc(NS(=O)(=O)c2ccc(Br)c(C(=O)O)c2)c1,7.18%
2,Cc1c(N2C(=O)/C(=C\c3ccc(N(C)C)cc3)N(C)C2=S)c(=O)n(-c2ccccc2)n1C,-11.4%
3,COc1cc(NS(=O)(=O)c2cn(C)cn2)cc(OC)c1OC,10.2%
4,CN1/C(=C/C2CC(=O)NC2=O)C(C)(C)c2ccccc21 (centres unmarked),3.26%
5,CN(C)c1ccc([P+](=O)c2ccc(N(C)C)cc2)cc1,9.37%
6,Cc1cccc(C)c1NC(=O)CNC(=O)C(C)NC(C)c1ccccc1Br (centres unmarked),-0.824%
7,COc1ccc(C(=O)NC(=S)N(CCC(C)C)c2c(N)n(Cc3ccccc3)c(=O)[nH]c2=O)cc1,-5.8%
8,Cc1ccc(C(=O)NCCCN2CCOCC2)c(Cl)c1,13%
9,CCCN1CCc2c(sc(NC(=S)NC(=O)c3ccccc3)c2C#N)C1,3.65%
10,Cc1ccc(-c2csc(SCC(=O)Nc3cc(C)on3)n2)cc1,-5.66%
11,Cc1ccc(-n2c(SCC(=O)Nc3ccc4c(c3)OCCO4)nnc2-c2ccco2)cc1,-30.9%
12,N#Cc1cn(Cc2ccccc2)c(=O)[nH]c1=O,18.3%
13,COc1ccc2oc(=N)c(C(=O)Nc3ccc(Cl)cc3)cc2c1,9.18%
14,COc1ccccc1CCC(=O)OCC(=O)Nc1cccc(S(=O)(=O)N2CCOCC2)c1,-37.6%
15,CC1(C)CC(NCCC(c2ccccc2)c2ccco2)CCO1 (centres unmarked),-52.5%
16,O=C(COc1cccc(F)c1)NNC(=O)Cc1ccc(Br)cc1,7.61%
17,CC(C)Cc1cc(C(=O)Nc2sc3c(c2C#N)CCC3)no1,5.42%
18,CC1(C)CC(=O)c2cnc(N)nc2C1,5.2%
19,Cc1ccccc1-c1nc(CS(=O)(=O)CC(=O)NC(C)c2ccccc2)c(C)o1 (centres unmarked),-8.68%
20,Cc1ccc2c(c1)nnn2C1CCN(S(=O)(=O)c2ccc(C(=O)N(C)C)cc2)CC1,-48%
